The list shows a part of the results.

The target of the assay is T1, MBP-FoxP1dN (Mus musculus, UniProt P58462 326-579).
T1 sequence: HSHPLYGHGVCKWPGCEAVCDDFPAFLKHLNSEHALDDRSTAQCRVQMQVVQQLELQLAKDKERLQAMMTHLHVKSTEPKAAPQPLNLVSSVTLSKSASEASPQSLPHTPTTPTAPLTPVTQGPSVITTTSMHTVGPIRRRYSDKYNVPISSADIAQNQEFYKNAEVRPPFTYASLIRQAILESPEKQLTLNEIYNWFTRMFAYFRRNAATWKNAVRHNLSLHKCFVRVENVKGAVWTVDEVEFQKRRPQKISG
The assay is described as follows: PD-seq (MBP pull-down with sequencing); 20 mM Tris-HCl pH 7.5, 100 mM NaCl, 1.5 mM MgCl2, 0.4 uM protein, 0.1 uM dsDNA library, 30 min, room temperature, amylose pull-down; high values mean tight binding. As to conditions: protein: recombinant; tags: His6-MBP; chain copies: 2; dsDNA, one strand shown. In a few lines: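 Binding is reads-per-million enrichment of pull-down over input, with replicates pooled. It comes from 30 min room-temperature incubation in Tris pH 7.5 buffer with NaCl and MgCl2 of 0.4 µM His6-MBP-tagged, N-terminally truncated mouse FoxP3 or FoxP1 fragment from E. coli with 0.1 µM Klenow-filled degenerate double-stranded DNA library, followed by amylose resin capture, three washes and Illumina sequencing of the released DNA.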
In the case of “GATGATTGTTCTCCCAGCTGATGAATTGTCGAGTTCGAGTAAACAAATTTTCCTAATCTTTCTGTTCAAGCGCCATCTAC”, the binding signal is 1.01 RPM ratio (pull-down/input).

“GATGATTGTTCTCCCAGCTGATGAATTGTCTCCCTCGAGTAAACAAATTTTCCTAATCTTTCTGTTCAAGCGCCATCTAC”: the binding signal was 1.03 RPM ratio (pull-down/input). Then “GATGATTGTTCTCCCAGCTGATGAATTAATTGTATCGAGTAAACAAATTTTCCTAATCTTTCTGTTCAAGCGCCATCTAC”, with 1.44 RPM ratio (pull-down/input). As to “GATGATTGTTCTCCCAGCTGATGAATTTGCACGCTCGAGTAAACAAATTTTCCTAATCTTTCTGTTCAAGCGCCATCTAC”, the binding signal is 0.948 RPM ratio (pull-down/input).

Consider “GATGATTGTTCTCCCAGCTGATGAATTCGCTAAGTCGAGTAAACAAATTTTCCTAATCTTTCTGTTCAAGCGCCATCTAC”, for which the binding signal was 0.891 RPM ratio (pull-down/input).

In the case of “GATGATTGTTCTCCCAGCTGATGAATTTCATTTGTCGAGTAAACAAATTTTCCTAATCTTTCTGTTCAAGCGCCATCTAC”, the binding signal is 1.12 RPM ratio (pull-down/input). Take “GATGATTGTTCTCCCAGCTGATGAATTTTTGGGATCGAGTAAACAAATTTTCCTAATCTTTCTGTTCAAGCGCCATCTAC”: the binding signal is 0.901 RPM ratio (pull-down/input). Then “GATGATTGTTCTCCCAGCTGATGAATTGGGTATGTCGAGTAAACAAATTTTCCTAATCTTTCTGTTCAAGCGCCATCTAC”, with 0.909 RPM ratio (pull-down/input); and “GATGATTGTTCTCCCAGCTGATGAATTCAAGCATTCGAGTAAACAAATTTTCCTAATCTTTCTGTTCAAGCGCCATCTAC”, with 1.11 RPM ratio (pull-down/input); and “GATGATTGTTCTCCCAGCTGATGAATTGATTCATTCGAGTAAACAAATTTTCCTAATCTTTCTGTTCAAGCGCCATCTAC”, with 1.02 RPM ratio (pull-down/input). Then “GATGATTGTTCTCCCAGCTGATGAATTATTTAAGTCGAGTAAACAAATTTTCCTAATCTTTCTGTTCAAGCGCCATCTAC”, with 1.06 RPM ratio (pull-down/input); and “GATGATTGTTCTCCCAGCTGATGAATTACGCGCGTCGAGTAAACAAATTTTCCTAATCTTTCTGTTCAAGCGCCATCTAC”, with 1.09 RPM ratio (pull-down/input). Consider “GATGATTGTTCTCCCAGCTGATGAATTCCTATACTCGAGTAAACAAATTTTCCTAATCTTTCTGTTCAAGCGCCATCTAC”, for which the binding signal is 0.861 RPM ratio (pull-down/input). “GATGATTGTTCTCCCAGCTGATGAATTCGAGGTTTCGAGTAAACAAATTTTCCTAATCTTTCTGTTCAAGCGCCATCTAC”: the binding signal is 0.88 RPM ratio (pull-down/input). Then “GATGATTGTTCTCCCAGCTGATGAATTGGTCTTGTCGAGTAAACAAATTTTCCTAATCTTTCTGTTCAAGCGCCATCTAC”, with 0.936 RPM ratio (pull-down/input); and “GATGATTGTTCTCCCAGCTGATGAATTGGAAGGCTCGAGTAAACAAATTTTCCTAATCTTTCTGTTCAAGCGCCATCTAC”, with 0.76 RPM ratio (pull-down/input).

Take “GATGATTGTTCTCCCAGCTGATGAATTGGGATTCTCGAGTAAACAAATTTTCCTAATCTTTCTGTTCAAGCGCCATCTAC”: the binding signal is 0.836 RPM ratio (pull-down/input). The result for “GATGATTGTTCTCCCAGCTGATGAATTTTGGAGATCGAGTAAACAAATTTTCCTAATCTTTCTGTTCAAGCGCCATCTAC” reads 0.822 RPM ratio (pull-down/input); that for “GATGATTGTTCTCCCAGCTGATGAATTAGCGTGCTCGAGTAAACAAATTTTCCTAATCTTTCTGTTCAAGCGCCATCTAC”, 0.924 RPM ratio (pull-down/input); that for “GATGATTGTTCTCCCAGCTGATGAATTACCTACTTCGAGTAAACAAATTTTCCTAATCTTTCTGTTCAAGCGCCATCTAC”, 1.03 RPM ratio (pull-down/input). For the sequence “GATGATTGTTCTCCCAGCTGATGAATTGTGCTCATCGAGTAAACAAATTTTCCTAATCTTTCTGTTCAAGCGCCATCTAC”, the binding signal is 1.12 RPM ratio (pull-down/input). Then “GATGATTGTTCTCCCAGCTGATGAATTGACGTTATCGAGTAAACAAATTTTCCTAATCTTTCTGTTCAAGCGCCATCTAC”, with 1.24 RPM ratio (pull-down/input); and “GATGATTGTTCTCCCAGCTGATGAATTGTCAGGCTCGAGTAAACAAATTTTCCTAATCTTTCTGTTCAAGCGCCATCTAC”, with 0.839 RPM ratio (pull-down/input). Then “GATGATTGTTCTCCCAGCTGATGAATTACTATAATCGAGTAAACAAATTTTCCTAATCTTTCTGTTCAAGCGCCATCTAC”, with 1.27 RPM ratio (pull-down/input).

“GATGATTGTTCTCCCAGCTGATGAATTTGTCTCTTCGAGTAAACAAATTTTCCTAATCTTTCTGTTCAAGCGCCATCTAC”: the binding signal was 1.06 RPM ratio (pull-down/input). On to “GATGATTGTTCTCCCAGCTGATGAATTGCGTTACTCGAGTAAACAAATTTTCCTAATCTTTCTGTTCAAGCGCCATCTAC”, for which the binding signal was 1.17 RPM ratio (pull-down/input).

“GATGATTGTTCTCCCAGCTGATGAATTTCCGCCATCGAGTAAACAAATTTTCCTAATCTTTCTGTTCAAGCGCCATCTAC”: the binding signal was 0.867 RPM ratio (pull-down/input). Then “GATGATTGTTCTCCCAGCTGATGAATTTGCGTTATCGAGTAAACAAATTTTCCTAATCTTTCTGTTCAAGCGCCATCTAC”, with 1.3 RPM ratio (pull-down/input); and “GATGATTGTTCTCCCAGCTGATGAATTAGCCGCTTCGAGTAAACAAATTTTCCTAATCTTTCTGTTCAAGCGCCATCTAC”, with 0.848 RPM ratio (pull-down/input); and “GATGATTGTTCTCCCAGCTGATGAATTTGTTGAATCGAGTAAACAAATTTTCCTAATCTTTCTGTTCAAGCGCCATCTAC”, with 1.23 RPM ratio (pull-down/input). Then “GATGATTGTTCTCCCAGCTGATGAATTGTTGTATTCGAGTAAACAAATTTTCCTAATCTTTCTGTTCAAGCGCCATCTAC”, with 2.21 RPM ratio (pull-down/input).

Source of the values: article PMC12820563, “FoxP3 forms a head-to-head dimer in vivo and stabilizes its multimerization on adjacent microsatellites”.
